Measured values as given in PubChem BioAssay AID1460 (National Center for Advancing Translational Sciences (NCATS), 2008).
The whole screen tested about 270,000 compounds, of which about 5,800 (2.1%) were called active. This list was built around the results that the source calls inconclusive (neither active nor inactive); the mix of calls is not that of the screen. The call rests on the fitted dose curve; in most records, active means well fitted inhibition curve with a large enough effect; inconclusive means small, poorly fitted or top-dose-only effect; inactive means flat fitted curve, though single readings scatter. Potencies of inconclusive entries are doubtful fits and often do not repeat.
Further: nearly all actives have a fitted effect of over 55% in size.
On the % scale 0 is the no-effect control and ±100 the full control effect; potency means the concentration at half of the fitted maximal effect; tags describe the fitted curve by direction and shape.

Each compound was assayed against Microtubule-associated protein tau (Homo sapiens) (UniProt P10636) (assay: qHTS for Inhibitors of Tau Fibril Formation, Thioflavin T Binding). Conditions: recombinant tau K18 P301L (four-repeat tau fragment), heparin-induced fibrillization, ThT fluorescence; series mostly up to 57.4 µM.
Sequence of UniProt P10636 (P10636 whole entry, looked up, the tested form may be a part): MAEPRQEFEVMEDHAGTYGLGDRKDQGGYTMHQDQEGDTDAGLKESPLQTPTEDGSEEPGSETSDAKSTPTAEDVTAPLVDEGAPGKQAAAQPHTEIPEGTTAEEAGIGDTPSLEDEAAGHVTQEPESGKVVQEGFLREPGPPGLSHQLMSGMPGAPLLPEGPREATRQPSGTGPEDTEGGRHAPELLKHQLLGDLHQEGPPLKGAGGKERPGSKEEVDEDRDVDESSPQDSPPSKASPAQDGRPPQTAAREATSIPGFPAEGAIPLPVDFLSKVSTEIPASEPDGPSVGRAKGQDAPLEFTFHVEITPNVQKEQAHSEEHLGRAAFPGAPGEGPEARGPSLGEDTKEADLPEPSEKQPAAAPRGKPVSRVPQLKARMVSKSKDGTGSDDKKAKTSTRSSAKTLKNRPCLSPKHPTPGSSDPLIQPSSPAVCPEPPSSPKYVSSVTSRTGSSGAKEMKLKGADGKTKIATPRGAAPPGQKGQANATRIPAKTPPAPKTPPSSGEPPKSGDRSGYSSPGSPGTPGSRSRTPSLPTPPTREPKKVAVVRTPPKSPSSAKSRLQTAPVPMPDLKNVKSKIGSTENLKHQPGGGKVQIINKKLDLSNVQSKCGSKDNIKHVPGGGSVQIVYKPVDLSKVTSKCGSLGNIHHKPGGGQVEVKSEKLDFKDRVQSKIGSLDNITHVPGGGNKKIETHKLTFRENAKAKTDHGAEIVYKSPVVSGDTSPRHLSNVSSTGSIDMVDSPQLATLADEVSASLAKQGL
How it was run: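 Recombinant human tau K18 fragment […] carrying P301L, 15 uM unlabeled plus 0.24 uM Alexa 594-labeled, was fibrillized with 20 uM heparin in 100 mM sodium acetate pH 7 for 6 hr at 37 C; 30 uM ThT fluorescence read after 1 hr.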
In the case of `Oc1ccccc1C(Nc1nccs1)c1ccc2cccnc2c1O` (configuration not stated), the Potency is reported as active: 20 µM. `O=C(Nc1ccc(Cl)cc1)Nc1ccccc1C(=O)O` was tested, and the Potency was inconclusive: 12.6 µM [activator, partial curve]. For `CCc1ccc(C(c2c(C)nn(-c3ccccc3)c2N)c2c(C)nn(-c3ccccc3)c2N)cc1`, the Potency was inconclusive: 14.1 µM [inhibitor, partial curve]. For `CCN(CCNc1ccc(Cl)cc1[N+](=O)[O-])C(=O)c1cc([N+](=O)[O-])c(N(C)C)cc1OC`, the Potency was inconclusive: 28.2 µM [inhibitor, partial curve]. `CCOCCn1c(CC)nc2ccccc21` was tested, and the Potency was “inactive”. `CCCN(Cc1cccs1)C(=O)Nc1cc(OC)ccc1OC` was tested, and the Potency was inconclusive: 44.7 µM [inhibitor, single point]. For `CC[n+]1c(/C=C2/C=C(C)CC(C)C2)sc2ccccc21` (configuration not stated), the Potency was inconclusive: 25.1 µM [inhibitor, partial curve]. With `Cc1c(C(=O)N2CCCCCC2)c(S(=O)(=O)N(Cc2ccccc2)C(C)(C)C)c(C)n1C` the Potency was “inactive”. For `O=c1c(/C=N/OCc2ccc(Cl)cc2Cl)c[nH]n1-c1cccc(Cl)n1`, the Potency was inconclusive: 44.7 µM [inhibitor, single point]. With `Cc1cc(NC(=O)/C=C/c2ccccc2Cl)n(-c2nc3ccccc3[nH]2)n1` the Potency was inconclusive: 14.1 µM [activator, partial curve]. With `O=C1NC(=O)/C(=C\c2ccc(O)cc2O)S1` the Potency was inconclusive: 22.4 µM [inhibitor, partial curve]. In the case of `COC(=O)C1C(C)OC(=O)NC1c1ccccc1` (configuration not stated), the activity, negative = inhibition is reported as inactive: -10.1% [at 11.5 µM]. With `COc1cc(C2c3c(-c4ccccc4O)n[nH]c3C(=O)N2Cc2ccco2)ccc1OCC(C)C` (configuration not stated) the Potency was “inactive”. In the case of `COc1ccc(CNC(=S)NCc2ccc(OC)cc2)cc1`, the Potency is reported as “inactive”. `CCOC(=O)N1CCN(S(=O)(=O)c2ccc(C(=O)NNc3nc4ccc(Cl)cc4s3)cc2)CC1` was tested, and the Potency was inconclusive: 22.4 µM [inhibitor, partial curve]. `Cc1ccc(C2=Nc3ccccc3N=C(C(Cl)Cl)C2)cc1` was tested, and the Potency was inconclusive: 14.1 µM [inhibitor, partial curve]. With `CN(C)CCNc1oc(COc2ccc(Cl)cc2Cl)nc1C#N` the Potency was inconclusive: 20 µM [inhibitor, partial curve]. `CCc1cccc(C)c1NC(=O)CN1CCCN(Cc2ccccc2Cl)S1(=O)=O` was tested, and the Potency was “inactive”. `COc1ccc2c(CC(=O)OCC(=O)Nc3ccccc3[N+](=O)[O-])coc2c1` was tested, and the Potency was inconclusive: 25.1 µM [inhibitor, partial curve]. For `C=CCn1c(=O)/c(=C/c2ccc(C)o2)s/c1=C(/C#N)C(=O)c1ccccc1`, the Potency was inconclusive: 7.08 µM [inhibitor, partial curve]. `CC(=O)c1cccc(S(=O)(=O)NCCC(=O)O)c1` was tested, and the Potency was “inactive”. `CCCc1nn2c(=O)cc(COc3ccc(/C=C(\C#N)C(=O)Nc4ccccc4)cc3)nc2s1` was tested, and the Potency was inconclusive: 1.41 µM [inhibitor, full curve]. For `O=C(/C=C/c1cccs1)c1ccc(N2CCOCC2)cc1`, the Potency was active: 15.8 µM. In the case of `Cn1ncc([N+](=O)[O-])c1C(=O)Nc1ccc(-c2nc3ccccc3[nH]2)cc1`, the Potency is reported as inconclusive: 15.8 µM [inhibitor, partial curve]. For `CCCCN1C(=O)/C(=C2/C=CC=CN2C)SC1=S`, the Potency was inconclusive: 15.8 µM [inhibitor, partial curve]. In the case of `Cc1cc(C(=O)Nc2cccc(/C=C/C(=O)O)c2)c(C)o1`, the Potency is reported as inconclusive: 17.8 µM [inhibitor, partial curve, poor fit]. In the case of `COc1ccc(/C=N/NC(=O)c2nn(-c3ccccc3)c(=O)c3c(N)scc23)cc1`, the Potency is reported as active: 14.1 µM. In the case of `CC(=O)N(c1ccc2oc(=O)sc2c1)S(=O)(=O)c1ccccc1`, the Potency is reported as inconclusive: 14.1 µM [inhibitor, partial curve]. `CCOC(=O)C(=O)C1(C(=O)OCC)Oc2cc(OC)cc(OC)c2C(=O)C1c1ccccc1` (configuration not stated) was tested, and the Potency was “inactive”. With `O=c1cc(-c2ccccc2)n2c(SCc3c(F)cccc3Cl)nnc2[nH]1` the Potency was “inactive”. For `c1ccc(Nc2nc(-c3cccs3)cs2)nc1`, the Potency was inconclusive: 20 µM [inhibitor, partial curve]. In the case of `COc1ccccc1N1C(C)=CC(=C(C#N)c2nc3ccccc3s2)C=C1C`, the Potency is reported as “inactive”. In the case of `CN(C)c1ccc(C(=O)NC2(N3CCC3=O)CCCC2)cc1`, the Potency is reported as inconclusive: 25.1 µM [inhibitor, single point]. With `N#C/C(=C(/O)CCl)c1nc2ccccc2[nH]1` the Potency was inconclusive: 12.6 µM [inhibitor, partial curve]. In the case of `CC(=O)Nc1ccc(N2CCCC2)cc1`, the Potency is reported as active: 28.2 µM. `COc1ccc2c(c1)-c1c(ssc1=S)C(C)(C)N2C(=O)CSC1=NCCS1` was tested, and the Potency was inconclusive: 10 µM [inhibitor, partial curve]. `CC1=CC(C)(C)Nc2ccccc21` was tested, and the Potency was “inactive”. In the case of `CC[C@@H](C)[C@@H](CO[C@@H](Cc1ccccc1)C(=O)N[C@@H](CCS(C)(=O)=O)C(=O)OC(C)C)NC[C@@H](N)CS`, the Potency is reported as active: 35.5 µM. With `COc1ccccc1NS(=O)(=O)c1cccc(C(=O)N/N=C/c2ccc(N3CCOCC3)cc2)c1` the Potency was inconclusive: 12.6 µM [inhibitor, partial curve]. In the case of `Cc1cc(C)nc(-n2nc(C)c3c2N(Cc2ccccc2)C(=O)CC3c2ccc(Cl)cc2)n1` (configuration not stated), the Potency is reported as “inactive”. In the case of `Cc1nc(NC(C)C)c2cnn(CCc3ccccc3)c2n1`, the Potency is reported as “inactive”. In the case of `COc1cccc(NC(=O)/C=C/c2ccco2)c1`, the Potency is reported as inconclusive: 28.2 µM [inhibitor, single point]. In the case of `CN1C(=O)/C(=C2\SC(N3CCCCCC3)=NC2=O)c2ccccc21`, the Potency is reported as active: 12.6 µM. In the case of `CS(=O)(=O)c1sc2nc(-c3cccs3)cc(-c3ccccc3)c2c1N`, the Potency is reported as inconclusive: 8.91 µM [inhibitor, partial curve]. For `COc1ccc(N2CCN(C(=O)CSc3nnc(COc4cccc5cccnc45)o3)CC2)cc1`, the Potency was inconclusive: 3.98 µM [inhibitor, partial curve]. With `O=C1SCCC1NS(=O)(=O)c1ccccc1[N+](=O)[O-]` (configuration not stated) the Potency was inconclusive: 20 µM [inhibitor, partial curve]. In the case of `C/C(=C\c1ccco1)C1C(C#N)=C(N)Oc2n[nH]c(-c3ccc(C)cc3)c21` (configuration not stated), the Potency is reported as “inactive”. `Cc1ccc(-n2cc(C(=O)Oc3ccc(F)cc3)c3ccccc3c2=O)cc1` was tested, and the Potency was “inactive”. `S=c1[nH]nc(-c2cccnc2)n1/N=C/c1cccs1` was tested, and the Potency was “inactive”. For `Cc1c(NC(=O)c2ccc(=O)oc2)c(=O)n(-c2ccccc2)n1C`, the Potency was inconclusive: 44.7 µM [inhibitor, partial curve, poor fit]. For `Cn1cccc1CC(=O)N/N=C\c1cccs1`, the Potency was inconclusive: 31.6 µM [inhibitor, single point]. In the case of `O=C(CSc1oc(-c2ccccc2)nc1S(=O)(=O)c1ccc(Cl)cc1)c1ccccc1`, the Potency is reported as inconclusive: 14.1 µM [inhibitor, partial curve]. With `O=C1c2c([N+](=O)[O-])cc([N+](=O)[O-])cc2S(=O)N1Cc1ccccc1` (configuration not stated) the Potency was active: 31.6 µM. `O=[N+]([O-])c1cc(Cc2ccccc2)cc(C=Nc2ccc(N3CCOCC3)cc2)c1O` was tested, and the Potency was active: 10 µM. With `Brc1ccccc1-c1nc(-c2ccccc2)no1` the Potency was inconclusive: 25.1 µM [inhibitor, single point]. In the case of `COc1ccc(-c2c(C)c3ccc(OCC(C)=O)cc3oc2=O)cc1`, the Potency is reported as inconclusive: 14.1 µM [inhibitor, partial curve, poor fit]. With `CCOc1ccc(NC(=O)c2cc(S(=O)(=O)N3CCc4ccccc43)ccc2F)cc1` the Potency was “inactive”. With `CCCCOc1ccc(CSCCNC(=S)Nc2ccccc2)cc1` the Potency was “inactive”. In the case of `C=CCNC(=S)Nc1sc2c(c1C(=O)OCC)CC(C(C)C)OC2` (configuration not stated), the Potency is reported as inconclusive: 22.4 µM [inhibitor, partial curve, poor fit]. In the case of `O=C(N/N=C/C=C/c1ccccc1[N+](=O)[O-])c1cccs1`, the Potency is reported as inconclusive: 15.8 µM [inhibitor, partial curve]. `O=C(Oc1ccc2c3c(c(=O)oc2c1)CCCC3)c1ccco1` was tested, and the Potency was inconclusive: 15.8 µM [inhibitor, partial curve]. `CCCCn1cnc2cc(NCc3ccc(OCC)cc3)ccc21` was tested, and the Potency was inconclusive: 20 µM [inhibitor, partial curve]. For `CCCCC1=CC2=CC(=O)C(C)(OC(=O)CC)C(=O)C2=CN1Cc1ccccc1` (configuration not stated), the Potency was inconclusive: 28.2 µM [inhibitor, single point]. `N/C(=N\OC(=O)N1c2ccccc2Sc2ccccc21)c1ccccc1` was tested, and the Potency was inconclusive: 20 µM [inhibitor, partial curve]. In the case of `C[C@@H](NC(=O)/C(C#N)=C/c1ccc(O)c(O)c1)c1ccccc1`, the Potency is reported as inconclusive: 14.1 µM [inhibitor, partial curve]. With `O=C(Nc1ccc2c(c1)OCCO2)c1ccc2nccnc2c1` the Potency was inconclusive: 2 µM [inhibitor, partial curve]. With `O=S(=O)(NC1CCCC1)c1ccccc1Br` the Potency was inconclusive: 3.16 µM [activator, partial curve]. `CCOC(=O)N1CCN(C(=O)Nc2ccccc2Cl)CC1` was tested, and the Potency was “inactive”. In the case of `O=C(CCSc1nc2ccccc2o1)N1CCOCC1`, the Potency is reported as “inactive”. `COc1ccc(C(=O)N/N=C/c2sc(N3CCOCC3)nc2-c2ccccc2)cc1OC` was tested, and the Potency was inconclusive: 17.8 µM [inhibitor, partial curve]. `COc1ccc(Oc2nc(-c3ccccn3)nc3ccccc23)cc1` was tested, and the Potency was inconclusive: 35.5 µM [inhibitor, partial curve]. With `O=C1Nc2ccc([N+](=O)[O-])cc2OC1CCN1CCN(Cc2ccc3c(c2)OCO3)CC1` (configuration not stated) the Potency was inconclusive: 25.1 µM [inhibitor, partial curve].
